The other results are listed elsewhere or left out. The main result of the screen is listed elsewhere. These columns were measured beside it and carry no call.

From PubChem BioAssay AID1745853 (National Center for Advancing Translational Sciences (NCATS), 2022) come the findings set out here.

What all share (test): Primary Screen for Target Class Profiling of Small Molecule Inhibitors of Methyltransferases
Test [1] has as its target Glycine N-methyltransferase (Homo sapiens) (UniProt Q14749). Conditions: purified enzyme, MTase-Glo SAH luminescence; measured here: GNMT inhibition; at 40 µM; stronger effect = lower value. In short, it runs like this: (§1)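 Each enzyme was reacted with SAM and its substrate, with compounds tested once at 40 uM; SAH formed was read by MTase-Glo luminescence.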
For test [2], the target named is Guanidinoacetate N-methyltransferase (Homo sapiens) (UniProt Q14353). Particulars: purified enzyme, MTase-Glo SAH luminescence; measured here: GAMT inhibition; at 40 µM; stronger effect = lower value. The gist of the method: as §1
In test [3] the target is Histamine N-methyltransferase (Homo sapiens) (UniProt P50135). Conditions: purified enzyme, MTase-Glo SAH luminescence; measured here: HNMT inhibition; at 40 µM; stronger effect = lower value. In short, it runs like this: as §1
Test [4] addresses Nicotinamide N-methyltransferase (Homo sapiens) (UniProt P40261). Particulars: purified enzyme, MTase-Glo SAH luminescence; measured here: NNMT inhibition; at 40 µM; stronger effect = lower value. The gist of the method:
as §1

The target in test [5] is Phenylethanolamine N-methyltransferase (Homo sapiens) (UniProt P11086). Conditions: purified enzyme, MTase-Glo SAH luminescence; measured here: PNMT inhibition; at 40 µM; stronger effect = lower value. The gist of the method:
as §1
% is scaled to controls: 0 for no effect and ±100 for the full control effect.

On to `COCCC(=O)N1CCCN(C(=O)C2CC2)c2ccccc21`, for which the activity change, negative = inhibition in test [1] was -6.81%; in test [2], -2.26%; in test [3] it was -2.43%; in test [4] it was -4.1%; in test [5], 0.565%.

With `CC1(C(=O)NC2CCCCCC2)Cn2c(ccc2-c2ccccc2)C(=O)N1Cc1cccs1` (stereo not given), the activity change, negative = inhibition is 5.26% in test [1]; 1.32% in test [2]; -1.5% in test [3]; -9.61% in test [4]; -1.87% in test [5].

Turning to `CCOC(=O)c1cc2n(n1)CC(C)(C(=O)NCc1ccc(C)cc1)N(c1cc(Cl)ccc1C)C2=O` (stereo not given), the activity change, negative = inhibition in test [1] is 6.28%; in test [2], 1.59%; in test [3], 6.05%; in test [4], 5.42%; in test [5], 7.72%.

Turning to `O=C(CCc1nnc2n(Cc3ccc(F)cc3)c(=O)c3ccccc3n12)Nc1ccc(F)c(F)c1`, the activity change, negative = inhibition in test [1] is -1.48%; in test [2], 3.54%; in test [3], 6.17%; in test [4], -19%; in test [5], -1.4%.

Consider `Nc1nc(CCC(=O)N[C@@H]2COCC[C@H]2Oc2ccc(CO)cc2)cs1`, for which the activity change, negative = inhibition in test [1] was -2.56%; in test [2], 0.905%; in test [3], 3.42%; in test [4], -4.83%; in test [5], -2.48%.

In the case of `CC1CCN(S(=O)(=O)c2ccc3c(ccn3CC(=O)NCC(C)c3ccccc3)c2)CC1` (stereo not given), the activity change, negative = inhibition was -0.188% in test [1]; 2.64% in test [2]; -5.46% in test [3]; -5.51% in test [4]; -3.33% in test [5].

On to `Cc1ccc(C)c(NS(=O)(=O)c2ccc3[nH]c4c(c3c2)CCCC4)c1`, for which the activity change, negative = inhibition in test [1] was 3.84%; in test [2], 0%; in test [3] it was 4.94%; in test [4], -11.3%; in test [5], 3.94%.

`O=C(NCCc1c[nH]c2ccc(Cl)cc12)c1cc2n(n1)CCCN(Cc1ccccc1)C2=O`: the activity change, negative = inhibition in test [1] is -12.1%; in test [2] it was 0.647%; in test [3], -0.515%; in test [4] it was -7.16%; in test [5] it was -0.767%.

With `CC(C)CCO[C@H]1COCCN(C2CCN(C)CC2)C1`, the activity change, negative = inhibition in test [1] is -6.47%; in test [2], -6.42%; in test [3], -5.03%; in test [4], -16%; in test [5] it was -6.88%.

As for `CN1C(=O)c2cc(C(=O)NCCN3CCCCC3)nn2CC1(C)C(=O)NCc1ccc(F)cc1` (stereo not given), the activity change, negative = inhibition was 7.64% in test [1]; 0.125% in test [2]; -2.46% in test [3]; 7.19% in test [4]; 6.87% in test [5].

Take `CC1OC(OCC2OC(OC3CCC4(C)C(CCC5(C)C4CC=C4C6CC(C)(C)CCC6(C(=O)OC6OC(CO)C(O)C(O)C6O)CCC45C)C3(C)CO)C(O)C(O)C2O)C(O)C(O)C1O` (stereo not given): the activity change, negative = inhibition in test [1] was 3.27%; in test [2] it was 5.45%; in test [3], 11%; in test [4], -6.58%; in test [5], 1.17%.

On to `O=C(O)c1cc(=O)c2ccccc2[nH]1`, for which the activity change, negative = inhibition in test [1] is -8.24%; in test [2] it was 2.58%; in test [3], -0.499%; in test [4], -7.16%; in test [5] it was 0.83%.

Consider `CC(C)(C)c1ccc(S(=O)(=O)N2CCC(n3c(=O)[nH]c4ccccc43)CC2)cc1`, for which the activity change, negative = inhibition was -11% in test [1]; 4.46% in test [2]; -5.55% in test [3]; -13.2% in test [4]; -5.68% in test [5].

Turning to `CC(C)NC(=O)N1CCOc2ccc(CCC(=O)NCCc3cccnc3)cc2C1`, the activity change, negative = inhibition was -4.07% in test [1]; 2.7% in test [2]; -1.49% in test [3]; -5.36% in test [4]; 11.5% in test [5].

Consider `CCCOC(=O)Cn1c(=O)oc2cc(S(=O)(=O)NCC(C)c3ccccc3)ccc21` (stereo not given), for which the activity change, negative = inhibition was 3.28% in test [1]; 0.425% in test [2]; 9.83% in test [3]; -2.66% in test [4]; 5.28% in test [5].

`COc1ccc(C(=O)N2CC[C@@](O)(C3CCOCC3)[C@H](C)C2)o1`: the activity change, negative = inhibition in test [1] is -0.325%; in test [2] it was 3.53%; in test [3], 1.89%; in test [4] it was -2.11%; in test [5], 17.2%.

For `CO[C@@H]1[C@@H](O[C@H]2O[C@@H](C)[C@H](O[C@@H]3C[C@](C)(O)[C@H](O)[C@@H](C)O3)[C@@H](N(C)C)[C@@H]2O)[C@@H](CC=O)C[C@@H](C)[C@@H](O[C@H]2CC[C@H](N(C)C)[C@H](C)O2)/C=C/C=C/C[C@@H](C)OC(=O)C[C@H]1O`, the activity change, negative = inhibition in test [1] is 0.75%; in test [2] it was 5.06%; in test [3], -4.33%; in test [4] it was -1.12%; in test [5], -3.19%.
